Experimental data as given in publication PMC7948425.
These are yes or no findings as the source states them, for the method shown. In cells and extracts the contact can be indirect. Some binding calls cover weakened binding; strength is not graded here. Sequences can lack the tags named with a protein. Values belong to the molecule of their own block, whether it stands above or below them.

The chains behind the UniProt entries cited, without tags or fusion partners.
UniProt Q9UQE7: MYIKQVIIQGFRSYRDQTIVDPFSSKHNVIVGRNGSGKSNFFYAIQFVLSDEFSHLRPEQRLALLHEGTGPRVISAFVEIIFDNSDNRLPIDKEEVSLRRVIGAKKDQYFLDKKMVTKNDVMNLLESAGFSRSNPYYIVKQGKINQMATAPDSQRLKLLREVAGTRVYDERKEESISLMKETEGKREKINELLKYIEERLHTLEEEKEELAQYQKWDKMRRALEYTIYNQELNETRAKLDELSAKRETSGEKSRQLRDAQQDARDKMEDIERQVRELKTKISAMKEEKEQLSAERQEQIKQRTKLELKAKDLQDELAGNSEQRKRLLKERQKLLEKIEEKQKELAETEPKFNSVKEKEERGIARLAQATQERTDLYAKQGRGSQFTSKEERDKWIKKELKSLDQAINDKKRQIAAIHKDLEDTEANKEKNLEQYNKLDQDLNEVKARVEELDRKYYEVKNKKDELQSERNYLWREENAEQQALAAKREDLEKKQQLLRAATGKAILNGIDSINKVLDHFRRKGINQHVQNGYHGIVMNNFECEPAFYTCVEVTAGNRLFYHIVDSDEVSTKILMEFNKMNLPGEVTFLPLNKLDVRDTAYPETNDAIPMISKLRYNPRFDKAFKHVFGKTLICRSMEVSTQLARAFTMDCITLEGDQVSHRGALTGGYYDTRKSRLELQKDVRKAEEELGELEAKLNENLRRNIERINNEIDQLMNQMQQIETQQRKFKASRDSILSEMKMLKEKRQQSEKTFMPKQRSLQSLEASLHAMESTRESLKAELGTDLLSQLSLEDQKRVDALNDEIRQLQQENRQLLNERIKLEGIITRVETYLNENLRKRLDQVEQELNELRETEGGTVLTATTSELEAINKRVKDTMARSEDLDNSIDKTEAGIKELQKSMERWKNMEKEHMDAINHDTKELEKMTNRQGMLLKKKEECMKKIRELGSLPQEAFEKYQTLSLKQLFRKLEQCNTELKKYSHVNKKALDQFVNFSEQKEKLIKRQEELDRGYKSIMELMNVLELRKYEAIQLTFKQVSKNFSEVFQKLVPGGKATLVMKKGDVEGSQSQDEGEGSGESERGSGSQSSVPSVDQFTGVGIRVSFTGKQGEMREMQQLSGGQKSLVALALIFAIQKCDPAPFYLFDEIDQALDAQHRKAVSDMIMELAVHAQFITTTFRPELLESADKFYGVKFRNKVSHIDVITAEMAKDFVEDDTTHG

Legend:
[1] = biological target: T1, Myc-USP13 ΔZnF (deletion of amino acids 210–265) (human) (UniProt Q92995); assay: co-IP; myc antibody on whole cell lysates of 293T cells transfected with Myc-USP13 constructs; Western blot with myc and SMC3 antibodies
T1 sequence: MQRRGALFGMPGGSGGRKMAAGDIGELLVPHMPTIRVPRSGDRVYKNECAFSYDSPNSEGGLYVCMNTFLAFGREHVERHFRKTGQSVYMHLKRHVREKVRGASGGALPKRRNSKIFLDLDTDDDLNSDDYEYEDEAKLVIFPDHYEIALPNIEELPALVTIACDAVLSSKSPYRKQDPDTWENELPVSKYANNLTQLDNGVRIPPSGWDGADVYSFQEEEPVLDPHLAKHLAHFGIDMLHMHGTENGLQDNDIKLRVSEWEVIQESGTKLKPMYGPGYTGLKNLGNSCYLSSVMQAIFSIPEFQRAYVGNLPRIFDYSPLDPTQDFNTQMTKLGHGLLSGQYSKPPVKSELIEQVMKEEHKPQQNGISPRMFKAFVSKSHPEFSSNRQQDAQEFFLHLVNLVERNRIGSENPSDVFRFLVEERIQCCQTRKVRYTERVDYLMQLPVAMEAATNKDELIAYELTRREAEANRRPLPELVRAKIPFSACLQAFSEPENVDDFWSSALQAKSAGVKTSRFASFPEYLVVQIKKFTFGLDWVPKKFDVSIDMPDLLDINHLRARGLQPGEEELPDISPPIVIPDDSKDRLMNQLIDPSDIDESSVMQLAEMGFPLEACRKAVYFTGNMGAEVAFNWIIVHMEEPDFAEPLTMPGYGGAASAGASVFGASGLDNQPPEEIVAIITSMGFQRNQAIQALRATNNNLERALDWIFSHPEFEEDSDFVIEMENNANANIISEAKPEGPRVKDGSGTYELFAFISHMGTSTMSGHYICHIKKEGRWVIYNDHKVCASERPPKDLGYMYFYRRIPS

[2] = biological target: T2, Myc-USP13 derivative comprising only the “USP” portion of the protein (human) (UniProt Q92995); assay: as above
T2 sequence: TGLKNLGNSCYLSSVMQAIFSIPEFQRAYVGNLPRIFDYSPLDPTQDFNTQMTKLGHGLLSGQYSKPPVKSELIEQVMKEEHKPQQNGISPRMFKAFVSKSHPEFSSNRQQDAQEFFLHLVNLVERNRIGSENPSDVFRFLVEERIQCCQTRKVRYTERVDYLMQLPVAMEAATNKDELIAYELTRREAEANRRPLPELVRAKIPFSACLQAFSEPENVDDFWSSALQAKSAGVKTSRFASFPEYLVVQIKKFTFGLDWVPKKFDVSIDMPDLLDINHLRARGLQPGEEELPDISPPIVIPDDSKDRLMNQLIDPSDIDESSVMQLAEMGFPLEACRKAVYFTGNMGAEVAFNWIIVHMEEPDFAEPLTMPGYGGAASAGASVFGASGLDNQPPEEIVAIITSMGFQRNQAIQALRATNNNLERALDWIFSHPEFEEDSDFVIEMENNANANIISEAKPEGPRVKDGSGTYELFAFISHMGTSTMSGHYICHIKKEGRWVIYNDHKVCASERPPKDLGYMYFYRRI

[3] = biological target: T3, Myc-USP13 ΔUBA (deletion of amino acids 654–766) (human) (UniProt Q92995); assay: as above
T3 sequence: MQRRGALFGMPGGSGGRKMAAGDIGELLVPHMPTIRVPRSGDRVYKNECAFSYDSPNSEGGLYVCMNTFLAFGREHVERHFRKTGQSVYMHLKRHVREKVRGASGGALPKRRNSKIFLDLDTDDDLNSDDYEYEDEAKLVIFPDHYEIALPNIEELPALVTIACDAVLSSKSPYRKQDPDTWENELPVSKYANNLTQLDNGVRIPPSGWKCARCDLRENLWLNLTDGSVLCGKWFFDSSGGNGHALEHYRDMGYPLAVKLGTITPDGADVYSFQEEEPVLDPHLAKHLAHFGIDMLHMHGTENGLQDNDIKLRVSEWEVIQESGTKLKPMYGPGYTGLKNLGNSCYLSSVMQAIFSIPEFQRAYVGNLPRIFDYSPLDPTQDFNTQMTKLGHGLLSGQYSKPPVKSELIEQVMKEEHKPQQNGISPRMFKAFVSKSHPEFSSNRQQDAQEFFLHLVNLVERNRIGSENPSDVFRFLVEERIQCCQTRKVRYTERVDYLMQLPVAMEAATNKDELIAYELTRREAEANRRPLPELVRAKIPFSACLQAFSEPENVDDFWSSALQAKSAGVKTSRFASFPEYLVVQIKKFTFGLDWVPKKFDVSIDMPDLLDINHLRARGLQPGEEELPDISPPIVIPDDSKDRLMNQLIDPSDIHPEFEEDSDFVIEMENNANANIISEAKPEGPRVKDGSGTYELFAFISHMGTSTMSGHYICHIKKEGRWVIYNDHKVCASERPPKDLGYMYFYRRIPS

[4] = biological target: T4, Myc-USP13 (ectopically expressed human USP13 with an amino-terminal myc epitope tag) (human) (UniProt Q92995); assay: as above
T4 sequence: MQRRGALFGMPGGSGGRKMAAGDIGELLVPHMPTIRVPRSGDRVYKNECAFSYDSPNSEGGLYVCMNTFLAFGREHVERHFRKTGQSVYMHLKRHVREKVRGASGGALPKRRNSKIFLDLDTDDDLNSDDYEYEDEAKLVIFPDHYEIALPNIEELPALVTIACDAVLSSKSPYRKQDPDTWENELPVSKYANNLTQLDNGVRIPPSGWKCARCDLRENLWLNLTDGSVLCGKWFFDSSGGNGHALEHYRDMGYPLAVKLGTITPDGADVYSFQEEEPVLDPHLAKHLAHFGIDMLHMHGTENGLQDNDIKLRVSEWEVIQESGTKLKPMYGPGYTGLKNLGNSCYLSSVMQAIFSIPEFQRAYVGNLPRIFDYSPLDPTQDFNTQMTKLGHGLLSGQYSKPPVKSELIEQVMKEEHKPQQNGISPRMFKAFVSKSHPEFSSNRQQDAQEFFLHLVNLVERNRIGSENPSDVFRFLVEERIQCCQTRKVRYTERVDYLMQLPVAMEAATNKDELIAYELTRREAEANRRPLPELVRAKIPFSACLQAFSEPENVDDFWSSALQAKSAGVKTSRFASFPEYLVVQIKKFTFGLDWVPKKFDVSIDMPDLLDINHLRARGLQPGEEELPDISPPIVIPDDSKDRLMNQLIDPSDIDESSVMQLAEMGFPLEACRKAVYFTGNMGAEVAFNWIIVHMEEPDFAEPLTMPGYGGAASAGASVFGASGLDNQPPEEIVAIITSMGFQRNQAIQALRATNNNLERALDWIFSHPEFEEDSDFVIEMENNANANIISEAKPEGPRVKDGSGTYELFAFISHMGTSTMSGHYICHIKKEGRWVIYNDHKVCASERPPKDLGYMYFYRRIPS

[5] = biological target: SMC3, endogenous (human (endogenous in HCT116, 293T, HeLa, RPE-hTERT)) (UniProt Q9UQE7); assay: co-IP; SMC3 antibody (or IgG control) on whole cell lysates (500 μg) of 293T, HCT116, HeLa and RPE-hTERT cells, TBS with 0.1% NP-40, 4 °C overnight, protein A/G agarose; Western blot with USP13 and STAG2 antibodies; also 293T cells treated 20 h with DMSO, hydroxyurea, RO-3306 or nocodazole
[6] = biological target: SMC3, endogenous (human (endogenous in HCT116, 293T, HeLa, RPE-hTERT)) (UniProt Q9UQE7); assay: co-IP; SMC3 antibody on soluble and chromatin fractions of 293T cells; Western blot with STAG2 and USP13 antibodies

- binding [1]: binds
- binding [2]: no binding
- binding [3]: no binding
- binding [4]: binds
Molecule: SMC3, endogenous (from UniProt Q9UQE7 1-1217)

- binding [5]: binds
- binding [6]: binds
B1: STAG2, endogenous (protein, UniProt Q8N3U4 1-1231)
chain: MIAAPEIPTDFNLLQESETHFSSDTDFEDIEGKNQKQGKGKTCKKGKKGPAEKGKGGNGGGKPPSGPNRMNGHHQQNGVENMMLFEVVKMGKSAMQSVVDDWIESYKHDRDIALLDLINFFIQCSGCKGVVTAEMFRHMQNSEIIRKMTEEFDEDSGDYPLTMAGPQWKKFKSSFCEFIGVLVRQCQYSIIYDEYMMDTVISLLTGLSDSQVRAFRHTSTLAAMKLMTALVNVALNLSINMDNTQRQYEAERNKMIGKRANERLELLLQKRKELQENQDEIENMMNAIFKGVFVHRYRDAIAEIRAICIEEIGIWMKMYSDAFLNDSYLKYVGWTMHDKQGEVRLKCLTALQGLYYNKELNSKLELFTSRFKDRIVSMTLDKEYDVAVQAIKLLTLVLQSSEEVLTAEDCENVYHLVYSAHRPVAVAAGEFLYKKLFSRRDPEEDGMMKRRGRQGPNANLVKTLVFFFLESELHEHAAYLVDSMWDCATELLKDWECMNSLLLEEPLSGEEALTDRQESALIEIMLCTIRQAAECHPPVGRGTGKRVLTAKEKKTQLDDRTKITELFAVALPQLLAKYSVDAEKVTNLLQLPQYFDLEIYTTGRLEKHLDALLRQIRNIVEKHTDTDVLEACSKTYHALCNEEFTIFNRVDISRSQLIDELADKFNRLLEDFLQEGEEPDEDDAYQVLSTLKRITAFHNAHDLSKWDLFACNYKLLKTGIENGDMPEQIVIHALQCTHYVILWQLAKITESSSTKEDLLRLKKQMRVFCQICQHYLTNVNTTVKEQAFTILCDILMIFSHQIMSGGRDMLEPLVYTPDSSLQSELLSFILDHVFIEQDDDNNSADGQQEDEASKIEALHKRRNLLAAFCKLIVYTVVEMNTAADIFKQYMKYYNDYGDIIKETMSKTRQIDKIQCAKTLILSLQQLFNEMIQENGYNFDRSSSTFSGIKELARRFALTFGLDQLKTREAIAMLHKDGIEFAFKEPNPQGESHPPLNLAFLDILSEFSSKLLRQDKRTVYVYLEKFMTFQMSLRREDVWLPLMSYRNSLLAGGDDDTMSVISGISSRGSTVRSKKSKPSTGKRKVVEGMQLSLTEESSSSDSMWLSREQTLHTPVMMQTPQLTSTIMREPKRLRPEDSFMSVYPMQTEHHQTPLDYNRRGTSLMEDDEEPIVEDVMMSSEGRIEDLNEGMDFDTMDIDLPPSKNRRERTELKPDFFDPASIMDESVLGVSMF
